{"source": "PubChem BioAssay AID504332", "about": "(National Center for Advancing Translational Sciences (NCATS), 2011)", "note": "“And” between values parts separate entries of the source, which are not always exact repeats. Equal values may be shown once. Out of some 350,000 compounds screened, about 31,000 (8.9%) were called active. This list was built around the results that the source calls inconclusive (neither active nor inactive); the mix of calls is not that of the screen. The call rests on the fitted dose curve; in most records, active means well fitted inhibition curve with a large enough effect; inconclusive means small, poorly fitted or top-dose-only effect; inactive means no such curve, though single readings can be large or run the other way. A potency beside an inconclusive call is a rough fit, not a confirmed value. Some compounds were tested as several samples or in several runs, with calls that do not always agree. On the % scale 0 is the no-effect control and ±100 the full control effect; potency means the concentration at half of the fitted maximal effect; tags describe the fitted curve by direction and shape.", "data": [{"target": "Histone-lysine N-methyltransferase EHMT2 (Homo sapiens) (UniProt Q96KQ7)", "sequence (Q96KQ7 whole entry, looked up)": "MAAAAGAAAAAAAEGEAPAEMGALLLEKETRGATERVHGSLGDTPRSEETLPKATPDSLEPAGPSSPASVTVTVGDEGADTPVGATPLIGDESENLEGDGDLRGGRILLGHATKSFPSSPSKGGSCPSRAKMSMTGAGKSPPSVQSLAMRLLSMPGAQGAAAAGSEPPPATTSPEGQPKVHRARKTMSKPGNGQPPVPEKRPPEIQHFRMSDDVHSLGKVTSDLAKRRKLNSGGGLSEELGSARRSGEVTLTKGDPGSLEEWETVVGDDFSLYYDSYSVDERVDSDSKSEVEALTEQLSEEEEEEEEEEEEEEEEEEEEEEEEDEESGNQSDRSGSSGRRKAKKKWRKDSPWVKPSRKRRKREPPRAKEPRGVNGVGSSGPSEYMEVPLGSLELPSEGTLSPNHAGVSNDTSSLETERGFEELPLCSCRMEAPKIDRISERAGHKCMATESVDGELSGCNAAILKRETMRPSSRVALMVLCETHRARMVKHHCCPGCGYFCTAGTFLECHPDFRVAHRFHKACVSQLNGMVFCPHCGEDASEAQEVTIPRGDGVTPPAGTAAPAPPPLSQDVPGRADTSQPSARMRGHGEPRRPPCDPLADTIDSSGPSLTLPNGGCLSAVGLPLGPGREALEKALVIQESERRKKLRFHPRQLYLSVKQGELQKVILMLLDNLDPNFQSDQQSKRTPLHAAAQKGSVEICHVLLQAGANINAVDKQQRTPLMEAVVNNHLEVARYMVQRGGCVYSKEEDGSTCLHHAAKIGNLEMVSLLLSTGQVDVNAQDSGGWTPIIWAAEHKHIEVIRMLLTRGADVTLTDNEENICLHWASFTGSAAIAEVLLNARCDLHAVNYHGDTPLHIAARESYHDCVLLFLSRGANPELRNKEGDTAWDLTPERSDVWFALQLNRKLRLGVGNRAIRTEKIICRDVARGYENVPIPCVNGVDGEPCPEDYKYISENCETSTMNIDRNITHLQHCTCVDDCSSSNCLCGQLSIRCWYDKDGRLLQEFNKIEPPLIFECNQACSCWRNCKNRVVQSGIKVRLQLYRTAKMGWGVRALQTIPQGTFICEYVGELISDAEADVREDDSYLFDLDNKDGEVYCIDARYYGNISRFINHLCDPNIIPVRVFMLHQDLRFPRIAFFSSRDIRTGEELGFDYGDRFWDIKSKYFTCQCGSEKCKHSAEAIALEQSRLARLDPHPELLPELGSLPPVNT", "assay": "qHTS Assay for Inhibitors of Histone Lysine Methyltransferase G9a; further: nearly all actives have a fitted effect of over 75% in size", "details": "G9a H3K9 monomethylation, AlphaScreen, 2 h; activity, negative = inhibition: at 59 µM (top of the series) unless noted", "outline": "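Enzyme 20 nM + cpd, 15 min RT; add b-H3K9 pep 500 nM / SAM 20 uM; 2 h RT; anti-H3K9me1 Ab 0.5 ug/mL + SA donor / anti-rabbit acceptor beads 20 ug/mL each, 10 min; AlphaScreen read.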", "values": [{"smiles": "CCc1ccc(NS(=O)(=O)c2ccc(-c3cc(C)no3)cc2)cc1", "activity, negative = inhibition": "inactive: -9.94%"}, {"smiles": "CCCCc1c(O)nc(SCC(=O)Nc2ccc(C)cc2)n(-c2ccc(OC)cc2)c1=O", "activity, negative = inhibition": "inactive: 0.166% [at 102 µM]"}, {"smiles": "Cc1cc(C(=O)COC(=O)C2=COCCO2)c(C)n1-c1cccc(F)c1", "Potency": "active: 56.2 µM"}, {"smiles": "COc1ccc(CNc2nc3c(c(=O)n(Cc4ccc(Br)cc4)c(=O)n3C)n2C)cc1", "activity, negative = inhibition": "inconclusive: -60% [inhibitor]"}, {"smiles": "CCOC(=O)N1CCc2c(sc3c2c(=O)n(-c2ccc(F)cc2)c(=O)n3CC(=O)c2ccc(Cl)cc2)C1", "activity, negative = inhibition": "inactive: 3.5%"}, {"smiles": "CS(=O)(=O)N1CCN(c2ccccc2NC(=O)Cc2ccc(Cl)cc2)CC1", "activity, negative = inhibition": "inactive: -9.58%"}, {"smiles": "O=C(NCCc1ccc(Cl)cc1)c1ccc2c(c1)nc1n2CCOC1", "Potency": "inconclusive: 39.8 µM [inhibitor, single point]"}, {"smiles": "CCOC(=O)C1=C(COC(=O)c2ccc3ccccc3c2O)NC(=O)NC1C", "note": "(stereo not given)", "Potency": "inconclusive: 2.51 µM [inhibitor, partial curve, poor fit]"}, {"smiles": "NC(=O)c1ccccc1NC(=O)c1cc(S(=O)(=O)N2CCCCC2)ccc1N1CCOCC1", "Potency": "inconclusive: 3.55 µM [inhibitor, single point]"}, {"smiles": "COc1ccc2sc(SCCCS(=O)(=O)O)[n+](CCCS(=O)(=O)[O-])c2c1", "Potency": "inconclusive: 39.8 µM [inhibitor, single point]"}, {"smiles": "CC(C)Oc1ccc(CCC(=O)NNC(=S)Nc2ccccc2)cc1", "Potency": "inconclusive: 50.1 µM [inhibitor, partial curve]"}, {"smiles": "COc1cccc(CNCCO)c1OCc1ccccc1Cl", "activity, negative = inhibition": "inactive: 12.4%"}, {"smiles": "CCC1(c2ccc(OC)cc2)NC(=O)N(CC(=O)N2CCc3ccccc32)C1=O", "note": "(stereo not given)", "Potency": "inconclusive: 56.2 µM [inhibitor, partial curve]"}, {"smiles": "COc1ccc2nc(N3CCCC(C(=O)NCCCN4C(C)CCCC4C)C3)sc2c1", "note": "(stereo not given)", "activity, negative = inhibition": "inactive: 7.07% [at 102 µM]"}, {"smiles": "CC(=O)C1=C(c2ccc(F)cc2)N(C(C)=O)n2c(nnc2C2CCCCC2)S1", "activity, negative = inhibition": "inactive: 1.43%"}, {"smiles": "Cn1c(SCC(=O)c2cc(Cl)c(Cl)s2)nnc1-c1ccco1", "Potency": "inconclusive: 56.2 µM [inhibitor, partial curve]"}, {"smiles": "COc1ccc(C(CNC(=O)c2cccc(S(=O)(=O)Nc3ccc(F)cc3)c2)N(C)C)cc1", "note": "(stereo not given)", "Potency": "inconclusive: 56.2 µM [inhibitor, partial curve, poor fit]"}, {"smiles": "CC(C)COCC(CN(Cc1ccccc1)c1ccccc1)N1CCCC1", "note": "(stereo not given)", "Potency": "active: 3.55 µM and active: 10 µM", "activity, negative = inhibition": "inactive: -33.8% [at 2.33 µM]"}, {"smiles": "C=NC(C(=O)NC1C(=O)N2C1SC(C)(C)C2C(=O)O)c1ccccc1", "note": "(stereo not given)", "activity, negative = inhibition": "inactive: 2.38% [at 2.33 µM]"}, {"smiles": "O=C(CCC(=O)N1CCSc2ccccc21)Nc1cccc(F)c1", "activity, negative = inhibition": "inactive: 33% [at 102 µM]"}, {"smiles": "CCN(C(=O)CSc1nc2ccccc2c(=O)n1Cc1ccc(C)cc1)C1CCS(=O)(=O)C1", "note": "(stereo not given)", "Potency": "inconclusive: 89.1 µM [inhibitor, single point]"}, {"smiles": "CCCCNc1ccc(-c2nc(-c3ccccn3)no2)cc1[N+](=O)[O-]", "activity, negative = inhibition": "inactive: -6.9%"}, {"smiles": "CCOc1ccc(-c2cc(C(=O)NCCCN3CCCC3)c3ccccc3n2)cc1", "Potency": "inconclusive: 79.4 µM [inhibitor, single point]"}, {"smiles": "O=C(O/N=C\\c1ccc(N2CCCCC2)c([N+](=O)[O-])c1)c1cccc(Cl)c1", "Potency": "active: 28.2 µM"}, {"smiles": "Cc1ccc(-c2nnn(CC(=O)N(Cc3cccs3)C(C(=O)NC3CCCC3)c3ccncc3)n2)cc1", "note": "(stereo not given)", "Potency": "inconclusive: 31.6 µM [inhibitor, single point]"}, {"smiles": "Cc1nnc2c(N3CCN(c4ccc(F)cc4)CC3)nc3ccc(C(=O)c4ccccc4)cc3n12", "activity, negative = inhibition": "inactive: 18.9%"}, {"smiles": "O=C(C1=C(O)C(=O)N(CCCN2CCOCC2)C1c1ccc(Cl)cc1)c1cc2ccccc2o1", "note": "(stereo not given)", "Potency": "inconclusive: 79.4 µM [inhibitor, single point]"}, {"smiles": "COc1ccc(CN2C(=O)C(C)N(C(=O)c3c(F)cccc3F)c3ccccc32)cc1", "note": "(stereo not given)", "Potency": "inconclusive: 0.631 µM [inhibitor, partial curve, poor fit]"}, {"smiles": "Clc1ccc(-c2nnc(NCc3ccccc3)c3ccccc23)cc1", "activity, negative = inhibition": "inactive: 1.39%"}, {"smiles": "CN(C(=S)NC1=CCS(=O)(=O)C1)C1CCCCC1", "Potency": "active: 10 µM"}, {"smiles": "CCCCN=C(N)/C(C(=O)OCC)=C(\\O)c1ccc(OC)cc1", "Potency": "inconclusive: 25.1 µM [inhibitor, partial curve, poor fit]"}, {"smiles": "COc1ccc(C(=O)N2CCNC(=O)C2CC(=O)Nc2ccc(C)c(C)c2)cc1", "note": "(stereo not given)", "activity, negative = inhibition": "inactive: -9.17% [at 102 µM]"}, {"smiles": "O=C(CCC1CCCC1)N1CCN(C2CCCC2)CC1", "Potency": "inconclusive: 2.51 µM [inhibitor, partial curve, poor fit]"}, {"smiles": "O=S(=O)(c1ccc2nnn(OCc3ccccc3)c2c1)N1CCOCC1", "Potency": "inconclusive: 11.2 µM [inhibitor, partial curve, poor fit]"}, {"smiles": "Cc1cccc(NC(=O)CSc2nnc(CSc3nc(C)cc(C)n3)n2Cc2ccco2)c1", "Potency": "inconclusive: 79.4 µM [inhibitor, single point]"}, {"smiles": "O=C(Nc1ccc(Cc2ccncc2)cc1)C1CCC(N2C(=O)C3CCCCC3C2=O)CC1", "note": "(stereo not given)", "activity, negative = inhibition": "inactive: -1.4% [at 102 µM]"}, {"smiles": "COC(=O)c1cccc(C(=O)N2CCCC(C(=O)c3cccc(OC(C)C)c3)C2)c1", "note": "(stereo not given)", "activity, negative = inhibition": "inactive: -7.16% [at 102 µM]"}, {"smiles": "CN1C(=O)C2(Oc3ccccc3C3CC(c4ccccc4)=NN32)c2ccccc21", "note": "(stereo not given)", "Potency": "inconclusive: 20 µM [inhibitor, single point]"}, {"smiles": "O=C(CC1SC(=NCC2CCCO2)NC1=O)Nc1cc([N+](=O)[O-])ccc1Cl", "note": "(stereo not given)", "activity, negative = inhibition": "inactive: 15.1% [at 102 µM]"}, {"smiles": "CCCCOc1ccc(/C(O)=C2/C(=O)C(=O)N(CCN(C)C)C2c2ccc(O)c(OC)c2)cc1", "note": "(stereo not given)", "Potency": "inconclusive: 39.8 µM [inhibitor, single point]"}, {"smiles": "Cc1cc(C)c(C)c(S(=O)(=O)NC(C(=O)O)C(C)C)c1C", "note": "(stereo not given)", "Potency": "inconclusive: 1.12 µM [inhibitor, partial curve, poor fit]"}, {"smiles": "COc1ccc2c(c1OC)C(=O)N1c3ccccc3SC21", "note": "(stereo not given)", "Potency": "inconclusive: 50.1 µM [inhibitor, partial curve]"}, {"smiles": "O=C(/C=C(\\c1ccc(Cl)cc1)n1cncn1)c1ccc(Cl)cc1", "Potency": "inconclusive: 89.1 µM [inhibitor, single point]"}, {"smiles": "Cc1c(Nc2cc(N3CCOCC3)c3nonc3c2[N+](=O)[O-])c(=O)n(-c2ccccc2)n1C", "Potency": "inconclusive: 50.1 µM [inhibitor, partial curve, poor fit]"}, {"smiles": "CN(Cc1ccccc1Br)C(=O)CSc1nnnn1C1CC1", "Potency": "inconclusive: 20 µM [inhibitor, single point]"}, {"smiles": "Cc1ccc(S(=O)(=O)Nc2ccc(O)c3ccccc23)c(C)c1", "Potency": "active: 22.4 µM"}, {"smiles": "CS(=O)(=O)N(Cc1ccccc1Cl)c1ccc(C(=O)NCc2ccccn2)cc1", "activity, negative = inhibition": "inactive: 28.5%"}, {"smiles": "COc1ccc(NC(=O)c2cc(C)cc(C)c2)cc1S(=O)(=O)N1CCCCC1", "activity, negative = inhibition": "inactive: -41.6% [at 12.7 µM]"}, {"smiles": "NC(=O)c1ccc(NC(=O)CNCc2ccccc2Cl)cc1", "activity, negative = inhibition": "inactive: -35.6% [at 102 µM]"}, {"smiles": "COc1ccc2c(CC(=O)NCc3ccc4c(c3)OCO4)coc2c1", "Potency": "inconclusive: 22.4 µM [inhibitor, single point]"}, {"smiles": "CCOC(=O)c1ccccc1NC(=O)CSc1nnc(Cc2cccn2C)n1-c1ccc(F)cc1", "activity, negative = inhibition": "inconclusive: -52.3% [inhibitor]"}, {"smiles": "COc1ccc(OC)c(NC(=O)Cn2ccn(-c3ccc(OC)c(OC)c3)c(=O)c2=O)c1", "Potency": "inconclusive: 20 µM [inhibitor, partial curve, poor fit]"}, {"smiles": "CC(C)COP(=O)(c1ccc(N(C)C)cc1)C(O)c1ccncc1", "note": "(stereo not given)", "Potency": "inconclusive: 56.2 µM [inhibitor, partial curve]"}, {"smiles": "Cc1ccc(NC(=O)c2ccc(NCCCN3CCC(C)CC3)c([N+](=O)[O-])c2)cc1F", "Potency": "active: 70.8 µM"}, {"smiles": "COc1ccc2cc(CCl)c(Cl)nc2c1", "Potency": "inconclusive: 50.1 µM [inhibitor, partial curve]"}, {"smiles": "CCCCN(CCCC)C(=O)/C=C/c1cccc([N+](=O)[O-])c1", "activity, negative = inhibition": "inconclusive: -53.2% [inhibitor]"}, {"smiles": "COC(=O)c1cc2c(cc1Cl)SC(=NCCCN1CCOCC1)NS2(=O)=O", "Potency": "inconclusive: 3.16 µM [inhibitor, partial curve, poor fit]"}, {"smiles": "COc1ccc(/C=C/C(=O)NC(=S)NN2CCCCC2c2cccnc2)cc1", "note": "(stereo not given)", "Potency": "inconclusive: 39.8 µM [inhibitor, single point]"}, {"smiles": "CC(C)CCNC(=O)C1CCC(CNc2c(N3CCCC3)c(=O)c2=O)CC1", "note": "(stereo not given)", "Potency": "inconclusive: 44.7 µM [inhibitor, partial curve, poor fit]"}, {"smiles": "Cc1ccc(NC(=O)Cc2ccc(-n3c(C)nc4cccnc43)cc2)c(Cl)c1", "activity, negative = inhibition": "inactive: -2.53%"}, {"smiles": "CCOc1ccc(NC(=O)Cn2ncc3c2-c2cc(C)ccc2OC3)cc1", "activity, negative = inhibition": "inactive: 16.2%"}, {"smiles": "CCN(CC(=O)Nc1ccc(NC(C)=O)cc1)C(=O)c1c(-c2c(F)cccc2Cl)noc1C", "activity, negative = inhibition": "inactive: 25.2% [at 102 µM]"}, {"smiles": "CCCCc1ccc(S(=O)(=O)Nc2cc(C)on2)cc1", "Potency": "inconclusive: 50.1 µM [inhibitor, partial curve, poor fit]"}, {"smiles": "O=C(O)/C(=C\\c1ccccc1Cl)c1ccc(S(=O)(=O)N2CCCCC2)s1", "Potency": "inconclusive: 31.6 µM [inhibitor, partial curve, poor fit]"}, {"smiles": "CCOC(=O)C(=NCCCN(C)C)NNc1cc(C(F)(F)F)ccc1Cl", "Potency": "active: 39.8 µM"}, {"smiles": "COc1ccc(NC(=O)COc2coc(CN3CCc4ccccc4C3)cc2=O)cc1", "activity, negative = inhibition": "inactive: -4.92% [at 0.501 µM]"}, {"smiles": "COc1ccc(Cc2nnc(NC(=O)c3ccc(OC)c(OC)c3)s2)cc1OC", "Potency": "inconclusive: 35.5 µM [inhibitor, single point]"}, {"smiles": "O=C(CSc1nnc(-c2ccccn2)n1Cc1ccccc1)NC1CCCC1", "activity, negative = inhibition": "inactive: -29.6% [at 102 µM]"}, {"smiles": "CC(=O)c1ccc(NS(=O)(=O)c2ccc3c(c2)N(C)CCO3)cc1", "Potency": "inconclusive: 56.2 µM [inhibitor, partial curve]"}]}]}
